Test results from publication PMC4336329 (PLoS ONE, 2015).
Out of some 310,000 compounds screened, about 2,200 (0.71%) showed an effect of 50% or more. Effects have a minus sign here. The list shows a part of the results.

Target: human ether-à-go-go-related gene (hERG) potassium channel (human, UniProt Q12809)
Test: primary screen, population patch clamp on CHO cells stably expressing hERG

human ether-à-go-go-related gene (hERG) potassium channel, sequence (Q12809 whole entry, looked up): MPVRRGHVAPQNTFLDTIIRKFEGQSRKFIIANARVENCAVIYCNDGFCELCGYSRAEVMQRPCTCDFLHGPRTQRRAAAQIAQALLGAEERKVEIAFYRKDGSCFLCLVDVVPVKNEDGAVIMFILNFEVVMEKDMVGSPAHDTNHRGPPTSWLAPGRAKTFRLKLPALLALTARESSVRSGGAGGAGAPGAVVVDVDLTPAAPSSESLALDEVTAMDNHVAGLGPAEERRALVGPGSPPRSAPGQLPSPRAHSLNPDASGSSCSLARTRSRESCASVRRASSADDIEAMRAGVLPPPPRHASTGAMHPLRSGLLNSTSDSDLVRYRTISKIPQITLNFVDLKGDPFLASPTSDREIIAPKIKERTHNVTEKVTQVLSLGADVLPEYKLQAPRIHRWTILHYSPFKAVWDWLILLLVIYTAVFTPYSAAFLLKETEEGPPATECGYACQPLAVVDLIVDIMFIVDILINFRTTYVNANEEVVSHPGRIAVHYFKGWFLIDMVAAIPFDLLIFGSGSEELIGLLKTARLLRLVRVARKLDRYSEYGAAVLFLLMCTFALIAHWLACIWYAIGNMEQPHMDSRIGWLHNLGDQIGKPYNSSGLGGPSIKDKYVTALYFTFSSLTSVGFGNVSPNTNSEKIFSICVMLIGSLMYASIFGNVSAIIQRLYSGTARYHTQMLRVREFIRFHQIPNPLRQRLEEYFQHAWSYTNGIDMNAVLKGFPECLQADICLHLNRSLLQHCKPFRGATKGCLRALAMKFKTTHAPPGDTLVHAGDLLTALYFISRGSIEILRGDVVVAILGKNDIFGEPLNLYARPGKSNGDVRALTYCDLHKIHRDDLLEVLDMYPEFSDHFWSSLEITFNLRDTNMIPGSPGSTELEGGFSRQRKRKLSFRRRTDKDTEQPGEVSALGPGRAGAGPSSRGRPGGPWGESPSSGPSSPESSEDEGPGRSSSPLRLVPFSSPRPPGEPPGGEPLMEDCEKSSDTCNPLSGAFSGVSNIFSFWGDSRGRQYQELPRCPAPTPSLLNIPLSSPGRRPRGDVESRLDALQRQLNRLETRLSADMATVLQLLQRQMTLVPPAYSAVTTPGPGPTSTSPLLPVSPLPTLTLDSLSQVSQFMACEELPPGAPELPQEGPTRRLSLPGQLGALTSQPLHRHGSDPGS

Structure (SMILES) | hERG current change (%, negative = inhibition) at 1uM [%]
O=C(Cn1cc2c(n1)CCCCC2)Nc1c(F)cc(F)cc1Br | 7.58
Cc1ccc(NS(=O)(=O)c2cccc(C(=O)Nc3c(C)n(C)n(-c4ccccc4)c3=O)c2)cc1 | 3.46
Cc1ccc(S(=O)(=O)N2CC3(C)CN(S(=O)(=O)c4ccc(C)cc4)CC(C)(C2)C3O)cc1 (centres unmarked) | 7.49
CCN(CC)C(=O)c1ccc(S(=O)(=O)Cc2ccc(C)cc2)c([N+](=O)[O-])c1 | 1.6
CC(=O)Nc1cccc(NC(=O)CSc2nnc3ccc(-c4cccnc4)nn23)c1 | 13.1
CCN(CC)C(=O)c1nc[nH]c1C(=O)N1CCN(C(=O)OC(C)(C)C)CC1 | 12.6
COC(=O)[C@@]1(Cc2ccc(F)cc2)[C@H]2c3cc(C(=O)N4CCCC4)n(CCCNc4ncc(C(F)(F)F)cc4Cl)c3C[C@H]2CN1C(=O)c1ccccc1 | 9.19
S=c1[nH]c2ccc(Cc3ccc4[nH]c(=S)[nH]c4c3)cc2[nH]1 | 13
CN1/C(=C\C(=S)NC(=O)c2ccc([N+](=O)[O-])cc2)C(C)(C)c2ccccc21 | 14.4
COc1ccc(Cn2nnnc2CN2CCC(c3nc4ccccc4s3)CC2)cc1 | 3.16
CCc1cc(=O)oc2cc(C)cc(OCC(=O)NCc3ccccn3)c12 | -8.34
CN(C(=O)c1cccc(C#CC(C)(C)O)c1)C1CCCN(Cc2ccccc2F)C1 (centres unmarked) | 10.2
Cc1nn(-c2cc(Cl)ccc2N)c(=O)c2ccccc12 | 0.593
CC/C(=N/NC(=O)c1ccccc1O)c1c(C)[nH]n(-c2ccccc2)c1=O | 13.6
COc1ccc(NC(=O)COc2cc(C)cc(C)c2)cc1S(=O)(=O)N1CCCCC1 | -6.23
FC(F)(F)c1cccc(CN2CCSCC2)c1 | 11.9
Cc1nc2c(C(=O)NCc3cccs3)cnn2c(C)c1Cc1ccc(F)cc1 | 7.78
C=CCn1c(SCC(=O)Nc2ccc3c(c2)OCO3)nc2ccccc2c1=O | 7.34
CC(=O)NC(C)c1ccc(C(=O)CSc2nnc(C3CC3)n2C2CC2)cc1 (centres unmarked) | 11.6
Cc1cc(C(=O)N/N=C/c2c(C)nn(-c3ccccc3)c2C)c(C)o1 | 12.2
O=C(NC1=NCCS1)c1ccccc1F | 2.08
CCC(Oc1ccccc1C)C(=O)Nc1ccc(S(=O)(=O)Nc2cc(C)on2)cc1 (centres unmarked) | 8.78

Structure (SMILES) | hERG current change (%, negative = inhibition) at 1uM [%]
O=C(O)CC(Cc1ccc(Br)cc1)C(=O)Nc1ccccc1 (centres unmarked) | 4.46
CC(C)(C)OC(=O)CNC(=O)c1[nH]cnc1C(=O)Nc1ccc(CNC(=O)OC(C)(C)C)cc1 | 11.6
CCCCCCS(=O)Cc1ccccc1 (centres unmarked) | -2.41
COc1cccc(C2Nc3ccc4ccccc4c3C3=C2C(=O)CCC3)c1O (centres unmarked) | 15.7
CCN(CC(=O)Nc1ccc(NC(C)=O)cc1)C(=O)CSC(c1ccccc1)c1ccccc1 | 5.05
Cc1ccc2c(C)nc(Nc3ncc4c(n3)CCCC4=O)nc2c1 | 2.3
CS/C(N)=N/N=C/c1cc(C)ccc1O | 8.38
CCc1ccc(-c2csc3ncn(CC(=O)N4CCOCC4)c(=O)c23)cc1 | -3.18
C/C(=N\Nc1nc(C)cc(-c2ccccc2)n1)c1ccc(F)cc1 | 11.2
CC(=C/c1ccc(C(C)C)cc1)/C=N/NC(=O)Cn1nc(C)cc1C | 10.2
CC1CCCCN1S(=O)(=O)c1ccc(S(=O)(=O)N2CCN(c3ccccc3)CC2)cc1 (centres unmarked) | 5.25
CCS(=O)(=O)N1Cc2ccccc2CC1C(=O)Nc1nnc(SCc2ccc(C#N)cc2)s1 (centres unmarked) | 5.91
Cn1ccc(C(=O)Nc2ccc3c(c2)OCCO3)n1 | 17.3
CCOC(=O)c1c(-c2ccco2)csc1NC(=O)CSc1nnc(N)s1 | 8.78
CC(C)CCNC(=O)C1CC2Cn3c(nc4cc(Cl)c(Cl)cc43)C2N1C (centres unmarked) | -26.1
CC(Sc1nnc(C(F)(F)F)n1C)C(=O)Nc1ccc(S(N)(=O)=O)cc1 (centres unmarked) | 8.05
CC(C)Cc1ccc(S(=O)(=O)NCC2CCCO2)cc1 (centres unmarked) | 10.3
CCCC(C(=O)Nc1ccc(C)c(S(=O)(=O)N2CCOCC2)c1)c1ccccc1 (centres unmarked) | -22.6
Cc1ccc2oc(=O)c3cnn(CC(=O)NC4CCN(Cc5ccccc5)CC4)c3c2c1 | 4.04
CCCCC(=O)N1CCCC(C)C1 (centres unmarked) | 7.91
CCOC(=O)C1=C(O)C(=O)NC(c2ccccc2)=C(OCC)C1 | 5.01
COc1ccc(Oc2ncccc2NC(=O)c2cccc(C)c2C)cc1 | 13.8

Structure (SMILES) | hERG current change (%, negative = inhibition) at 1uM [%]
Cc1ccc2c(c1)N(CC(=O)NC1CCCc3ccccc31)C(=O)CO2 (centres unmarked) | 4.84
O=C(N/N=C/c1ccco1)C1(O)c2ccccc2-c2ccccc21 | 8.19
O=C(Cc1ccccc1)N1CCC(c2ccccc2)C1 (centres unmarked) | 10.5
COCCC(=O)N1CCC(Oc2ccc(C(=O)NCCn3cccn3)cc2)CC1 | 1.73
CC[C@@H](C)C(NC(=O)OC(C)(C)C)c1cn([C@@H](Cc2ccc(O)cc2)C(=O)N2CCN(C(=O)OC(C)(C)C)CC2)nn1 (some centres unmarked) | -7.25
COc1ccccc1CNC(=O)c1cc2c(s1)CS(=O)(=O)C2 | 15.3
CCC1Oc2ccccc2N(CC(=O)NCCN2C(C)CCCC2C)C1=O (centres unmarked) | 2.97
O=C(NCCC1CCCCN1S(=O)(=O)c1ccccc1)C(=O)NC1CCCC1 (centres unmarked) | -7.8
COc1ccc(-c2nc3cc(C)ccn3c2NC(=O)c2c(F)cccc2Cl)cc1 | 8.14
O=C(Nc1cc(Cl)ccc1Cl)c1cc(-c2ccco2)on1 | 3.74
CCC(CO)[n+]1c(C)cc(/C=C2\Sc3ccccc3N2Cc2ccccc2)cc1C.[Br-] (centres unmarked) | -18.9
Cc1cc(NC(=O)CSc2nnc(-c3c[nH]c4ccccc34)n2-c2ccc(F)cc2)no1 | 15.6
O=C(N/N=C/C(Br)=C/c1ccccc1)c1cccnc1 | -0.267
CC1=CCC(C(=O)O)(C(=O)N/N=C/c2cccs2)C(c2ccc([N+](=O)[O-])cc2)C1 (centres unmarked) | -9.18
Cc1cc(=O)[nH]c(Nc2cccc(Br)c2)n1 | 13.9
CN(c1ccccc1C(=O)Nc1ccc(CC#N)cc1)S(=O)(=O)c1ccccc1 | 8.83
COc1ccc(S(=O)(=O)N2CCC(C(=O)NCCc3ccc4c(c3)OCO4)CC2)cc1 | -1.99
COc1cc(NC(=O)c2ccc(OC)c([N+](=O)[O-])c2)ccc1NC(=O)c1ccco1 | 4.26
COc1cc(C(=O)Oc2ccccc2/C=N/NC(=O)c2ccc(Cl)cc2Cl)cc(OC)c1OC | 5.63
O=C(Cc1ncc(C(F)(F)F)cc1Cl)NCc1ccco1 | 5.04
CCC(CC)c1nnc(NC(=O)c2cc(C(=O)OC)cc([N+](=O)[O-])c2)s1 | 11.7
CCN1CCN(C(CNS(=O)(=O)c2ccc(Cl)cc2)c2cccnc2)CC1 (centres unmarked) | -10.6

Structure (SMILES) | hERG current change (%, negative = inhibition) at 1uM [%]
S=C(NCC1CCCO1)Nc1cccc(Cl)c1 (centres unmarked) | 13.3
Cl.Fc1ccc(Nc2nc(NCc3ccco3)c3ccccc3n2)cc1 | -2.26
O=C(Nc1ccc(N2CCOCC2)c(Cl)c1)c1cccc(-n2cnnc2)c1 | 16.5
CC(C)c1ccc(NC(=O)Cn2ncc3ccccc32)cc1 | 9.75
Cc1cccc(C(=O)NC(C)C(c2cccs2)N2CCOCC2)c1 (centres unmarked) | 7.59
COCCN1C(=O)C(=O)/C(=C(/O)c2ccc(OC(C)C)cc2)C1c1cccnc1 (centres unmarked) | 14.2
Cc1c(NC(=O)C2CCCN(S(=O)(=O)c3cnc[nH]3)C2)c(=O)n(-c2ccccc2)n1C (centres unmarked) | 14.8
Cc1cc(C)cc(C(=O)NCCN2CCOCC2)c1 | 15.8
COc1ccc(Cl)cc1N/C(N)=N/c1nc(CSc2ccc(C)cc2)cc(=O)[nH]1 | 9.62
C=CC(=O)NC1CC2CCC1(C)C2(C)C (centres unmarked) | 14.4
CC(C)CCc1noc(CN(C)CC2CCN(Cc3ccccc3)CC2)n1 | -17.5
COCc1nc2ccccc2n1CCCOc1ccccc1 | -1.6
O=C(CNC(=O)c1ccccc1F)N/N=C/c1cc(Br)ccc1OCc1ccccc1 | -0.264
Cc1cc(NC(=O)c2ccc(Br)cc2)nc(C)n1 | 5.36
O=C(CCCc1nc2ccccc2s1)NCc1ccccc1 | -2.48
COC(=O)CCn1nnc(-c2cccs2)n1 | 2.71
NC(=O)[C@@H]1CCCN1Cc1nc(-c2cccs2)no1 | 9.8
Nc1ccc(SCCN2C(=O)c3ccccc3C2=O)cc1 | 8.91
COC(=O)c1ccc(-c2sc3nc(N4CCOCC4)c4c(c3c2N)CCCC4)o1 | 6.06
COc1ccc(-c2csc(NC(=O)CN3C(=O)C4CC=CCC4C3=O)n2)cc1OC (centres unmarked) | 10.2
